Reference: PubChem BioAssay (Tox21)
Where “and” joins values, the source holds several entries; their conditions need not be identical. Identical values can stand only once. Inconclusive results, whose numbers are uncertain, are shown with a selection of clear calls. For part of these data: Potencies of inconclusive entries are doubtful fits and often do not repeat. Calls of active or inactive are those of the source. Unless noted, calls follow the shape of the dose curve; as a rule, active = well fitted curve in the direction sought with a large enough effect in the repeat runs; inconclusive = weak or mixed curves; inactive = no such curve, though single readings can be large; an effect the other way counts as inactive or inconclusive.

How the values were obtained:
[1] = qHTS assay to identify small molecule agonists of the estrogen related receptor (ERR) signaling pathway from Tox21 library (AID 1224849; calls by dose curve; also: % is scaled to controls: 0 for no effect and ±100 for the full control effect; nearly all actives have a fitted effect of over 15% in size); conditions: ERR reporter cell line, ONE-Glo luciferase, 18 h
Outline: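 Quantitative HTS in agonist format: NTP ERR cell line, compounds transferred in DMSO after 6 h plating, 18 h incubation at 37 C, ONE-Glo luminescence endpoint.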

[2] = qHTS RealTime-Glo MT Cell Viability Assay in HEK293 cells - 32 hour (AID 1224868); conditions: RealTime-Glo luminescence; series mostly up to 76.8 µM; also: potency is read from the fitted curve at half-maximal effect; nearly all actives have a fitted effect of over 50% in size
Outline: (§1)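 HEK293 cells seeded with NanoLuc/prosubstrate reagent, rested 5 h at 37 C, then dosed and kept at 37 C up to 40 h. Nonlytic real-time luminescence from viable cells read at 0, 8, 16, 24, 32 and 40 h.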

[3] = A CellTox Green Cytotoxicity Assay to monitor cytotoxicity in HEK293 cells - 40 hour (AID 1224871); conditions: CellTox Green fluorescence; series mostly up to 76.8 µM; also: nearly all actives have a fitted effect of over 45% in size; also: potency is read from the fitted curve at half-maximal effect
Outline: (§2)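 Dead-cell fluorescence measured kinetically: asymmetric cyanine dye, HEK293, 600 cells/well, 5 h settle, 23 nL cpd/DMSO, 37 C, reads 0–40 h every 8 h.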

[4] = qHTS RealTime-Glo MT Cell Viability Assay in HEK293 cells - 16 hour (AID 1224872); conditions: RealTime-Glo luminescence; series mostly up to 76.8 µM; also: nearly all actives have a fitted effect of over 50% in size; also: potency is read from the fitted curve at half-maximal effect
Outline: as §1

[5] = qHTS RealTime-Glo MT Cell Viability Assay in HepG2 cells - 8 hour (AID 1224873); conditions: RealTime-Glo luminescence; series mostly up to 76.8 µM; also: nearly all actives have a fitted effect of over 55% in size; also: potency is read from the fitted curve at half-maximal effect
Outline: (§3)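 HepG2 cells (600/well) mixed with RealTime-Glo MT reagent, settled 5 h at 37 C/5% CO2 before compound addition. Nonlytic NanoLuc luminescence from viable-cell prosubstrate reduction read repeatedly during 40 h treatment at 37 C.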

[6] = qHTS RealTime-Glo MT Cell Viability Assay in HEK293 cells - 40 hour (AID 1224874); conditions: RealTime-Glo luminescence; max response: hits give low values; also: potency is read from the fitted curve at half-maximal effect; nearly all actives have a fitted effect of over 50% in size
Outline: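 600 HEK293 cells per well, dispensed already mixed with RealTime-Glo MT reagents. Compound dosing came 5 h later. The same wells were read for luminescence at 0, 8, 16, 24, 32 and 40 h of exposure at 37 C.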

[7] = A CellTox Green Cytotoxicity Assay to monitor cytotoxicity in HepG2 cells - 0 hour (AID 1224882); conditions: CellTox Green fluorescence; series mostly up to 76.8 µM; also: potency is read from the fitted curve at half-maximal effect; nearly all actives have a fitted effect of over 35% in size
Outline: (§4)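 First, HepG2 cells (600/well) mixed with reagent were plated; second, after 5 h at 37 C they received compounds via pintool; third, fluorescence was measured at 0 h through 40 h at 8 h intervals.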

[8] = qHTS assay to identify small molecule antagonists of the estrogen related receptor (ERR) signaling pathway from Tox21 library (AID 1224848); conditions: ERR reporter cell line, luciferase antagonist mode, 18 h; series mostly up to 92.4 µM; also: % is scaled to controls: 0 for no effect and ±100 for the full control effect; nearly all actives have a fitted effect of over 50% in size
Outline: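 Quantitative high-throughput format: ERR reporter cells (2,000/well) pre-incubated 6 h, treated 18 h at 37 C with compounds in DMSO alongside positive and negative controls, then read by ONE-Glo luminescence.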

[9] = qHTS RealTime-Glo MT Cell Viability Assay in HepG2 cells - 40 hour (AID 1224870); conditions: RealTime-Glo luminescence; series mostly up to 76.8 µM; also: nearly all actives have a fitted effect of over 50% in size; also: potency is read from the fitted curve at half-maximal effect
Outline: as §3

[10] = A CellTox Green Cytotoxicity Assay to monitor cytotoxicity in HepG2 cells - 40 hour (AID 1224879); conditions: CellTox Green fluorescence; series mostly up to 76.8 µM; also: nearly all actives have a fitted effect of over 40% in size; also: potency is read from the fitted curve at half-maximal effect
Outline: as §4

[11] = qHTS RealTime-Glo MT Cell Viability Assay in HepG2 cells - 24 hour (AID 1224867); conditions: RealTime-Glo luminescence; series mostly up to 76.8 µM; also: nearly all actives have a fitted effect of over 50% in size; also: potency is read from the fitted curve at half-maximal effect
Outline: (§5)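 HepG2 cells (600/well) were dispensed with RealTime-Glo reagents, incubated 5 h at 37 °C, then treated with compounds in DMSO for up to 40 h. Nonlytic NanoLuc luminescence reflecting viable cells was read at each stated time point.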

[12] = A CellTox Green Cytotoxicity Assay to monitor cytotoxicity in HEK293 cells - 32 hour (AID 1224881); conditions: CellTox Green fluorescence; series mostly up to 76.8 µM; also: nearly all actives have a fitted effect of over 40% in size; also: potency is read from the fitted curve at half-maximal effect
Outline: as §2

[13] = A CellTox Green Cytotoxicity Assay to monitor cytotoxicity in HepG2 cells - 24 hour (AID 1224878); conditions: CellTox Green fluorescence; series mostly up to 76.8 µM; also: nearly all actives have a fitted effect of over 45% in size; also: potency is read from the fitted curve at half-maximal effect; as to Cytotoxicity: % is scaled to controls: 0 for no effect and ±100 for the full control effect
Outline: as §4

[14] = A CellTox Green Cytotoxicity Assay to monitor cytotoxicity in HEK293 cells - 24 hour (AID 1224875); conditions: CellTox Green fluorescence; series mostly up to 76.8 µM; also: nearly all actives have a fitted effect of over 45% in size; also: potency is read from the fitted curve at half-maximal effect; as to activity change: % is scaled to controls: 0 for no effect and ±100 for the full control effect
Outline: as §2

[15] = qHTS RealTime-Glo MT Cell Viability Assay in HepG2 cells - 32 hour (AID 1224877); conditions: RealTime-Glo luminescence; series mostly up to 76.8 µM; also: potency is read from the fitted curve at half-maximal effect; nearly all actives have a fitted effect of over 55% in size
Outline: as §5

[16] = at 92.4 µM (top of the series) unless noted
Tags tell the direction and shape of the fitted curve.

For `Cn1c(=O)c2c(ncn2C)n(C)c1=O`, which activity change, positive = activation ([1]; at 42.5 µM (top of the series)) is on record?
The activity change, positive = activation was inactive: 0.592%.

And the activity change, positive = activation ([1]; at 92.4 µM (top of the series))?
The activity change, positive = activation was inactive: -33.2% and inactive: 0.518%.

And the Potency [2]?
The Potency was inconclusive: 17.6 µM [rising, partial curve].

What about the Potency [3] of the same compound?
The Potency was inconclusive: 62.4 µM [activator, single point].

What about the Potency [4] of the same compound?
Its Potency is inconclusive: 15.7 µM [rising, partial curve].

With `O=Cc1c(Cl)cccc1Cl` as the compound, how does the activity change, positive = activation [1, 16] read?
Its activity change, positive = activation is inactive: 3.9%.

With `CC1=Nc2ccccc2C1(C)C` as the compound, how does the activity change, positive = activation [1, 16] read?
The activity change, positive = activation was inconclusive: 14.1%.

What about the Potency [2] of the same compound?
Its Potency is inconclusive: 21.9 µM [cytotoxic, full curve].

And the Potency [5]?
The Potency was “inactive”.

What about the Potency [6] of the same compound?
Its Potency is inconclusive: 24.6 µM [cytotoxic, full curve].

And the Potency [7]?
The Potency was inconclusive: 61.7 µM [activator, partial curve, poor fit].

For `IC(I)I`, which Potency [8] is on record?
Its Potency is “inactive”.

And the Potency [9]?
The Potency was active: 21.8 µM and active: 4.9 µM.

And the Potency [10]?
The Potency was inconclusive: 54.9 µM [activator, single point].

Which Potency [11] does the source give for `O=C1[C@H]2CCCC[C@H]2C(=O)N1CCCCN1CCN(c2nsc3ccccc23)CC1` here?
Its Potency is “inactive”.

And the Potency [2]?
The Potency was inconclusive: 21.3 µM [cytotoxic, partial curve].

And the Potency [3]?
The Potency was inconclusive: 26.8 µM [activator, single point].

And the Potency [4]?
Its Potency is inconclusive: 9.52 µM [cytotoxic, partial curve].

What about the Potency [5] of the same compound?
Its Potency is “inactive”.

And the Potency [6]?
Its Potency is inconclusive: 26.8 µM [cytotoxic, single point].

What about the Potency [12] of the same compound?
Its Potency is “inactive”.

What does the source list for `CCCCCCCCC1CCC(=O)O1` (stereo not drawn)?
activity change, positive = activation [1, 16]: inconclusive: 12.9%; Potency [13]: inactive

What does the source list for `Cc1c(C(=O)O)c(O)cc2c1C(=O)c1c(O)c([C@@H]3O[C@H](CO)[C@@H](O)[C@H](O)[C@H]3O)c(O)c(O)c1C2=O`?
Potency [11]: inconclusive: 60.2 µM [falling, single point]; Potency [14]: inactive; Potency [15]: inconclusive: 53.6 µM [cytotoxic, partial curve, poor fit]; Potency [10]: inactive

For `[Cl][Dy]([Cl])[Cl]`, which Potency [11] is on record?
The Potency was “inactive”.

For `NC1CCN(c2nc3c(cc2F)c(=O)c(C(=O)O)cn3-c2ccc(F)cc2F)C1` (stereo not drawn), which activity change, positive = activation [1, 16] is on record?
Its activity change, positive = activation is inconclusive: 28.5% [at 42.5 µM].

What about the Potency [12] of the same compound?
Its Potency is “inactive”.

Which Potency [11] does the source give for `CCC(COC(=O)CCS)(COC(=O)CCS)COC(=O)CCS` here?
Its Potency is “inactive”.

And the Potency [9]?
Its Potency is “inactive”.

And the Potency [3]?
Its Potency is “inactive”.

With `C=CCCCCCCCCCCCC` as the compound, how does the Potency [11] read?
The Potency was “inactive”.

And the Potency [13]?
Its Potency is “inactive”.

For `O=C(Oc1ccccc1)Oc1ccccc1`, which Potency [11] is on record?
The Potency was inconclusive: 54.7 µM [falling, single point].

What about the Potency [12] of the same compound?
The Potency was “inactive”.

Which Potency [11] does the source give for `CN(C)CCCN1c2ccccc2CCc2ccccc21` here?
The Potency was inconclusive: 54.9 µM [falling, partial curve, poor fit].

And the Potency [2]?
Its Potency is inconclusive: 49 µM [cytotoxic, single point].

What about the Potency [4] of the same compound?
The Potency was “inactive”.

What about the Potency [6] of the same compound?
The Potency was inconclusive: 26.8 µM [cytotoxic, single point].

What about the Potency [13] of the same compound?
Its Potency is inconclusive: 26.8 µM [activator, single point].

And the Potency [10]?
The Potency was inconclusive: 26.8 µM [activator, single point].

And the Potency [12]?
The Potency was inconclusive: 38.9 µM [activator, partial curve].

What does the source list for `COc1cc(S(=O)(=O)Nc2ccccc2)c(OC)cc1N`?
Potency [11]: inconclusive: 21.9 µM [falling, partial curve, poor fit]; Potency [5]: inconclusive: 11 µM [falling, partial curve]

What does the source list for `CN(C)c1ccc(O)c2c1C[C@H]1C[C@H]3[C@H](N(C)C)C(=O)C(C(N)=O)=C(O)[C@@]3(O)C(=O)C1=C2O`?
Potency [11]: inconclusive: 49 µM [falling, partial curve, poor fit]; Potency [14]: inactive

For `CCCCCCCCCCCCCCC[C@H](O)[C@@H](N)CO`, which Potency [11] is on record?
Its Potency is inconclusive: 26.8 µM [falling, single point].

And the Potency [9]?
Its Potency is inconclusive: 26.8 µM [falling, single point].

And the Potency [4]?
The Potency was active: 21.3 µM.

What about the Potency [5] of the same compound?
The Potency was inconclusive: 26.8 µM [falling, single point].

What about the Potency [14] of the same compound?
The Potency was active: 21.3 µM.

What about the Potency [10] of the same compound?
Its Potency is active: 26.8 µM.

What about the Potency [12] of the same compound?
The Potency was active: 21.3 µM.

And the Potency [7]?
The Potency was inconclusive: 26.8 µM [activator, single point].

With `CCCCCCCC/C=C\CCCCCCCC(=O)OCCO` as the compound, how does the Potency [11] read?
The Potency was inconclusive: 72.8 µM [rising, partial curve].

And the Potency [4]?
Its Potency is inconclusive: 64.9 µM [cytotoxic, partial curve, poor fit].

For `COc1cc(/C=C/c2ccccc2)oc(=O)c1`, which Potency [11] is on record?
The Potency was “inactive”.

And the Potency [2]?
The Potency was inconclusive: 32 µM [cytotoxic, partial curve].

And the Potency [4]?
Its Potency is inconclusive: 40.2 µM [cytotoxic, partial curve, poor fit].

What about the Potency [6] of the same compound?
The Potency was inconclusive: 32 µM [cytotoxic, partial curve].

With `Cc1ncc(COP(=O)(O)O)c(C=O)c1O` as the compound, how does the Potency [11] read?
Its Potency is “inactive”.
